The record followed here is ChEMBL document CHEMBL4888484, “Replenishing the malaria drug discovery pipeline: Screening and hit evaluation of the MMV Hit Generation Library 1 (HGL1) against asexual blood stage Plasmodium falciparum ,using a nano luciferase reporter read-out” (2022).

In all, about 150,000 compounds went through this assay and about 540 (0.36%) showed an effect of 50% or more. Some of the results follow.

For the experiment, the system named is Plasmodium falciparum. The experiment can be described thus: Primary screen in NF54 nanoGlo assay, in single point, at 2uM, 72h; a lower Z score goes with more inhibition. To be noted: timepoint 72 hour. In kind it is functional, Erythrocyte.
Consider `COc1cc2c(cc1OC)[C@H](c1ccccc1Cl)N(C(=O)c1cccc3cc[nH]c13)CC2`, for which the “% Inhibition” value amounted to 7% and the Z score is recorded as -0.81.

For the compound `C[C@@H]1N(c2ncccc2C(F)(F)F)CCC12CCOCC2`, the “% Inhibition” value is reported as -5% and the Z score is 0.64.

As to `CCN=C(NCc1c(C)noc1C)NCC1CCOC1C(C)(C)C` (stereo unspecified), the “% Inhibition” value is given as -16% and the Z score stood at 1.69.

For the compound `CC[C@@H](CN=C(N)N(C)C)Oc1cccc(F)c1`, the “% Inhibition” value is on record as -2% and the Z score is listed as 0.27.

Turning to `C=CCN(C(=O)c1cc[nH]n1)c1nc2c(s1)CCCC2`, the “% Inhibition” value is on record as -2% and the Z score came to 0.24.

For the compound `Cc1cc(C)nc(NCCC(=O)NCCc2c[nH]c3ccc(F)cc23)n1`, the “% Inhibition” value was -6% and the Z score turned out to be 0.89.

Turning to `O=C(CN1CCN(Cc2ccccc2)CC1)Nc1nccs1`, the “% Inhibition” value is -7% and the Z score was 0.86.

Regarding `CCNC(=NCCOCc1ccccc1)NCC`, the “% Inhibition” value is given as -3% and the Z score came out at 0.4.

As to `CCOc1cccc(S(=O)(=O)N(C)[C@@]2(C#N)CCOC2)c1`, the “% Inhibition” value is listed as -2% and the Z score turned out to be 0.22.

Regarding `CCCC(CCC)C(=O)N1CCC2(CC1)N[C@H](C(=O)N1CCCC1)Cc1[nH]cnc12`, the “% Inhibition” value is on record as -6% and the Z score is on record as 0.92.

For the compound `C[C@@H]1CC(=O)N[C@H](C(=O)N2CCC(O)(C(F)F)CC2)C1`, the “% Inhibition” value worked out at 1% and the Z score is -0.15.

For `Cc1ccc(C)c(CN(Cc2ccccc2)Cc2nc(C(=O)NCc3cccnc3)co2)c1`, the “% Inhibition” value is -3% and the Z score was 0.26.

For the compound `CCn1cc(CC(=O)NC2CCCCCC2)c2cccnc21`, the “% Inhibition” value is on record as -4% and the Z score came to 0.49.

In the case of `CN(C)[C@H]1CCCN(C(=O)CCc2cccs2)CC1`, the “% Inhibition” value is reported as -5% and the Z score stood at 0.64.

Take `CCOc1ccccc1NC(=O)[C@H]1CCc2nc(N3CCOCC3)ncc2C1`: the “% Inhibition” value was -10% and the Z score turned out to be 1.86.

Turning to `CC(C)OC(=O)N(CCOC(=O)Nc1cccc(Cl)c1)CCOC(=O)Nc1cccc(Cl)c1`, the “% Inhibition” value is 34% and the Z score is -4.33.

For `Cc1nc(-c2ccc3c(c2)n(CC(=O)Nc2ccc4c(c2)OCO4)c(=O)n3C(C)C)no1`, the “% Inhibition” value is on record as -7% and the Z score came out at 0.81.

In the case of `CCn1c(N2CCC(C(=O)N3CCN(c4cccc(Cl)c4)CC3)CC2)cc(=O)n(C)c1=O`, the “% Inhibition” value is given as -10% and the Z score is given as 1.51.

In the case of `CCN1c2cc(C)ccc2-n2cccc2C12CCN(C(=O)Nc1ccc(C)cc1Cl)CC2`, the “% Inhibition” value is 8% and the Z score was -1.09.

Consider `CCCS(=O)(=O)c1c(S(=O)(=O)CCC)c2cc(-c3ccncc3)ccn2c1C(=O)c1ccc(OC)cc1`, for which the “% Inhibition” value was -7% and the Z score turned out to be 0.61.

On to `Cc1cccc(CN2CCC[C@@]3(CCN(C(=O)CCOc4ccccc4)C3)C2)c1`, for which the “% Inhibition” value was 3% and the Z score is reported as -0.52.

Consider `CC(C)n1nccc1C(=O)Nc1nnnn1C`, for which the “% Inhibition” value is reported as -11% and the Z score amounted to 2.06.

Take `C[C@@H](CC(=O)Nc1ccc2c(c1)OCCO2)n1cccn1`: the “% Inhibition” value is -8% and the Z score stood at 1.56.

In the case of `Cc1ccc(Cc2ccccc2C(=O)N[C@@H]2C[C@@H](CO)N(C)C2)cc1F`, the “% Inhibition” value was 0% and the Z score worked out at 0.06.

For `CCCCCNC(=O)NC1(CCO)CCOCC1`, the “% Inhibition” value was -12% and the Z score was 1.32.

As to `COCCc1nnc(NC(=O)c2ccc(F)c(F)c2)o1`, the “% Inhibition” value was -1% and the Z score is reported as 0.13.

Take `NS(=O)(=O)c1ccc(CNCCC(=O)Nc2nccs2)cc1`: the “% Inhibition” value is recorded as -11% and the Z score is reported as 1.06.

Take `O=C1NCCC[C@@H]1NS(=O)(=O)c1cncc(Br)c1`: the “% Inhibition” value is listed as -7% and the Z score stood at 0.85.

Turning to `Cc1ccc2c(Nc3ccc(F)c(Cl)c3)c(C(=O)N3CCCCCC3)cnc2n1`, the “% Inhibition” value is -11% and the Z score is listed as 1.8.

Consider `COc1c(C)cc(C(=O)N[C@@H]2c3ccccc3C3(CCNCC3)[C@H]2O)cc1C`, for which the “% Inhibition” value is on record as -8% and the Z score amounted to 1.7.

Turning to `O=S(=O)(c1ccccc1)N1C2C=CCC1CC2` (stereo unspecified), the “% Inhibition” value is given as -7% and the Z score was found to be 1.31.

On to `NC(=O)Cn1cc(Nc2nc3ccccc3s2)cn1`, for which the “% Inhibition” value is recorded as 1% and the Z score is listed as -0.19.

Take `Cc1nn(C)c(C)c1CCC(=O)N1C[C@@H]2CC[C@H]1CN(c1ncccn1)C2`: the “% Inhibition” value is 0% and the Z score amounted to 0.02.

`CC[C@@H](CO)NC(=O)c1cscn1`: the “% Inhibition” value stood at 1% and the Z score is listed as -0.19.

For the compound `Cc1ccc(C(=O)Nc2cccc(CCc3nc4ccccc4[nH]3)c2)cc1F`, the “% Inhibition” value is recorded as -11% and the Z score turned out to be 1.28.

With `CCC1(C)CN(C(=O)c2ccc(C(F)(F)F)nc2)C1`, the “% Inhibition” value is given as -4% and the Z score was 0.52.

Regarding `COc1ccc([C@@H](NS(=O)(=O)c2ccccc2C)C2CC(O)C2)cn1` (stereo partly specified), the “% Inhibition” value is reported as -7% and the Z score is given as 1.05.

For `CO[C@@H](CNS(=O)(=O)c1cnn(C)c1)c1cc2ccccc2o1`, the “% Inhibition” value was -11% and the Z score is recorded as 1.88.

Turning to `CC(C)(C)c1ccc(C(C)(C)C)c(NC(=O)N2CCN([C@H]3CCNC3)CC2)c1`, the “% Inhibition” value was -5% and the Z score was determined as 0.72.

Consider `O=C(Cn1cnc2nc(N3CCOCC3)sc2c1=O)N1CCN(c2ccccc2F)CC1`, for which the “% Inhibition” value is reported as -2% and the Z score is reported as 0.34.

As for `CN(C(=O)c1ccoc1Cl)c1ccc(N2CCOCC2)nc1`, the “% Inhibition” value is -10% and the Z score is listed as 1.56.

As for `O[C@H](COc1ccc(F)cc1)CN(Cc1ccccc1C(F)(F)F)C1CC1`, the “% Inhibition” value was found to be 14% and the Z score is -1.61.

On to `CC[C@H]1C(=O)NCCCN1C(=O)Cn1ccc(C(F)(F)F)n1`, for which the “% Inhibition” value was -10% and the Z score was found to be 1.45.

By % Inhibition is commonly meant the relative decrease from the control value, in per cent.
